PubChem BioAssay AID504332 (National Center for Advancing Translational Sciences (NCATS), 2011)
Among all 350,000 compounds or so, about 31,000 (8.9%) were called active. This list was built around the results that the source calls inconclusive (neither active nor inactive); the mix of calls is not that of the screen. Calls come from the whole dose curve; as a rule, active = well fitted inhibition curve with a large enough effect; inconclusive = small, poorly fitted or top-dose-only effect; inactive = no such curve, though single readings can be large or run the other way. A potency beside an inconclusive call is a rough fit, not a confirmed value.

Molecular target: Histone-lysine N-methyltransferase EHMT2 (Homo sapiens) (UniProt Q96KQ7)
Sequence of UniProt Q96KQ7 (Q96KQ7 whole entry, looked up): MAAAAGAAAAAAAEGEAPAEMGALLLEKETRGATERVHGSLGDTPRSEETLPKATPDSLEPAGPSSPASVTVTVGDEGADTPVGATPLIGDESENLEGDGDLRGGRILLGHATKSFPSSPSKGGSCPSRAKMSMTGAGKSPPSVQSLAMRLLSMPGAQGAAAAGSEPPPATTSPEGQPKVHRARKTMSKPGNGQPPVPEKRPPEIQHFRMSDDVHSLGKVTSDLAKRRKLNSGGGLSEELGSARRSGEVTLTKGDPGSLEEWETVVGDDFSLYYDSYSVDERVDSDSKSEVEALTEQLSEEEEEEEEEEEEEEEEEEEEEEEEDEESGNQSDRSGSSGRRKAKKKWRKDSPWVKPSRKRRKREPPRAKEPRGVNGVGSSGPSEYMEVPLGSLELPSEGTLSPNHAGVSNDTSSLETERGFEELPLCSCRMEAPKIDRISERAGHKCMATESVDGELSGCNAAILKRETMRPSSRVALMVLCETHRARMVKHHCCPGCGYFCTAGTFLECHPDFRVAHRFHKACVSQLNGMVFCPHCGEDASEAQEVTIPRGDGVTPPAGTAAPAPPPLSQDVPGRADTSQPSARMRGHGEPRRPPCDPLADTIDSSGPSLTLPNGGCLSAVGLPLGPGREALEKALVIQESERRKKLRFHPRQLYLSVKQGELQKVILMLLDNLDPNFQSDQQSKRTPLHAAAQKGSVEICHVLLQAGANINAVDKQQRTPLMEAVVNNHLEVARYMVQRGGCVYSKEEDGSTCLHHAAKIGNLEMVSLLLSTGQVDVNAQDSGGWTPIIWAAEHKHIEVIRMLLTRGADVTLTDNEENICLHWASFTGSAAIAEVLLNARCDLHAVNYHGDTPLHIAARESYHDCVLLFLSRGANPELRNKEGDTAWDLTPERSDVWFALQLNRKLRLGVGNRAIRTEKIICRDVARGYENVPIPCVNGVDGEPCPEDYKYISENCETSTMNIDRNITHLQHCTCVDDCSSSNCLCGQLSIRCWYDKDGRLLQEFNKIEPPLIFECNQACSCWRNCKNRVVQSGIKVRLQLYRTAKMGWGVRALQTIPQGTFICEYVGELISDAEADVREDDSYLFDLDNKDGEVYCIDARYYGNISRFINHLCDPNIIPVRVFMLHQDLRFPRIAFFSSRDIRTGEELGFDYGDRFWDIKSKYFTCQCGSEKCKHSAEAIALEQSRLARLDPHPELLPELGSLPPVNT
Test: qHTS Assay for Inhibitors of Histone Lysine Methyltransferase G9a; note: nearly all actives have a fitted effect of over 75% in size
Details: G9a H3K9 monomethylation, AlphaScreen, 2 h; activity, negative = inhibition: at 59 µM (top of the series) unless noted
Method in brief: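 Using a bead-based AlphaScreen, monomethylated H3K9 product from 2 h room-temperature reactions (G9a 20 nM, peptide 500 nM, SAM 20 uM) was detected with 0.5 ug/mL rabbit anti-H3K9me1 antibody.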
% is set by controls: 0 for no effect and ±100 for the full control effect; potency is the fitted concentration of half-maximal effect; tags give direction and shape of the fitted curve.

Compound	Potency	activity, negative = inhibition
Cc1cnn(-c2ccc3nnc(-c4ccc(Br)cc4)n3n2)c1	inconclusive: 5.62 µM [inhibitor, single point]	–
CCN(CC(=O)Nc1c(F)cccc1F)C(=O)c1ccc(N2C(=O)c3ccccc3C2=O)cc1	–	inactive: -1.81% [at 102 µM]
COc1ccc(CCNc2ncnc3c2c(-c2ccccc2)cn3-c2ccc(F)cc2)cc1OC	inconclusive: 28.2 µM [inhibitor, single point]	–
O=C(NCc1ccccc1)c1ccccc1CO	inconclusive: 89.1 µM [inhibitor, single point]	–
CCOC(=O)C(C)/C(C)=N/NC(N)=S (stereo unspecified)	inconclusive: 3.16 µM [inhibitor, single point]	–
COc1ccc(NC(=O)/C=N/O)cc1	–	inactive: -9.31% [at 102 µM]
Cc1cc(NC(=S)NC(=O)C2CC2)ccc1Br	inconclusive: 79.4 µM [inhibitor, partial curve, poor fit]	–
CCOc1cc(/C=C/c2nc3cc(C)c(C)cc3s2)ccc1OCC(=O)N1CCOCC1	active: 12.6 µM	–
CN1C(C(=O)Nc2ccccn2)=C(O)c2sccc2S1(=O)=O	inconclusive: 39.8 µM [inhibitor, single point]	–
COc1ccc2cc(C(=O)C3CCCN(C(=O)c4sc(C)nc4C)C3)ccc2c1 (stereo unspecified)	inconclusive: 89.1 µM [inhibitor, single point]	–
Oc1c(C=Nc2ccccc2Cl)[nH]c2ccccc12	active: 8.91 µM	–
O=C1CN(Cc2nc3cc(Cl)ccc3c(=O)[nH]2)CCN1	–	inconclusive: -59.9% [inhibitor]
CCn1c(=O)c2cc(C(=O)N(C)c3ccc(OC)cc3OC)sc2c2ccccc21	inconclusive: 20 µM [inhibitor, partial curve, poor fit]	–
Nc1nonc1N/N=C/c1c(O)ccc2ccccc12	inconclusive: 44.7 µM [inhibitor, partial curve]	–
O=C(N/N=C/c1ccc(N2CCOCC2)s1)c1ccccc1Br	inconclusive: 1.41 µM [inhibitor, full curve, poor fit]	–
CCC1CCCCN1C(=O)CSc1nnc(-c2ccc(OC)cc2)o1 (stereo unspecified)	inconclusive: 79.4 µM [inhibitor, single point]	–
COc1ccc(Nc2nnc(-c3ccc(C(N)=O)cc3)c3ccccc23)cc1	inconclusive: 89.1 µM [inhibitor, single point]	–
O=C(c1ccc(-c2ccccc2)cc1)c1ccc([N+](=O)[O-])cc1	active: 56.2 µM	–
CN(Cc1c(O)ccc2c1oc(=O)c1ccccc12)C1CCCCC1	inconclusive: 1.41 µM [inhibitor, full curve, poor fit]	–
COc1ccc(-c2[nH]ncc2N=Nc2cc(C)cc(C)c2)cc1	inconclusive: 14.1 µM [inhibitor, full curve]	–
COc1ccc(CN2CCN(S(=O)(=O)c3ccc(F)cc3)CC2)cc1OC	active: 10 µM	–
Cc1ccc2cc3cc(C(=O)NCCCN4CCCC4)oc3nc2c1	active: 79.4 µM	–
COc1ccc(CCNC(=O)Cn2c(=O)n(-c3cc(OC)c(OC)c(OC)c3)c(=O)c3ccccc32)cc1OC	–	inactive: -7.56%
COc1cc(OC)c(C(=O)Nc2ccccc2-c2ccccc2)cc1OC	–	inactive: -48.3% [at 102 µM]

Compound	Potency	activity, negative = inhibition
CC1CCCC(C)N1C(=O)COC(=O)CNC(=O)c1sc2ccccc2c1Cl (stereo unspecified)	inconclusive: 79.4 µM [inhibitor, single point]	–
CCCc1cc(C(=O)Nc2sc(C(C)=O)c(C)c2C(=O)OCC)no1	inconclusive: 28.2 µM [inhibitor, single point]	–
O=C1CC(Cc2ccccc2)C(=O)N1CCCn1ccnc1 (stereo unspecified)	–	inconclusive: -134% [inhibitor]
O=C(COc1ccc(Cl)cc1)Nc1cc2c3c(c1)CC(=O)N3CCC2	inconclusive: 79.4 µM [inhibitor, single point]	–
CCn1c(SCC(=O)N2CCc3ccccc32)nnc1-c1ccncc1	inconclusive: 2.51 µM [inhibitor, partial curve, poor fit]	–
CN(C(=O)CC1C(=O)NCCN1Cc1ccoc1)C1CCOCC1 (stereo unspecified)	inconclusive: 50.1 µM [inhibitor, partial curve]	–
CCCc1nc2nc(C)c(NS(=O)(=O)c3ccc(C4CCCCC4)cc3)c(=O)n2[nH]1	inconclusive: 89.1 µM [inhibitor, single point]	–
COc1cccc(NS(=O)(=O)c2ccc3[nH]cc(C(=O)NCCc4ccccc4)c(=O)c3c2)c1	–	inactive: -16.4%
COc1ccc(/C=C2/Sc3ccc(C(=O)NCCN4CCCCCC4)cc3NC2=O)cc1	–	inconclusive: -121% [inhibitor]
CCOc1ccc(CCNCc2c(C(=O)O)n(Cc3ccc(C)cc3)c3cc(OC)ccc23)cc1	inconclusive: 20 µM [inhibitor, single point]	–
CCCN1CCN(C(=O)c2ccccc2-c2nc3ccccc3s2)CC1	active: 39.8 µM	–
COc1ccc(NC(=S)NCc2cccn2C)cc1	active: 50.1 µM	–
CC(=O)c1sc2nsc(SCCN3CCCCC3)c2c1N	inconclusive: 39.8 µM [inhibitor, single point]	–
Cc1csc(Nc2ccc(Cl)cc2)n1	active: 44.7 µM	–
Cc1nc2ccc(Cl)cc2c(-c2ccccc2)c1CC(=O)O	inconclusive: 3.16 µM [inhibitor, partial curve, poor fit]	–
CCN(CC)C(=O)CSC1=Nc2ccccc2C2=NC(c3ccccc3)C(=O)N12 (stereo unspecified)	inconclusive: 89.1 µM [inhibitor, single point]	–
COc1cccc(NC(=O)CN(C)C(=O)CSc2ccc3c(c2)OCCO3)c1	inconclusive: 31.6 µM [inhibitor, single point]	–
CCN(CC)c1ccc(NC(=O)CSc2nc3nc(C)cc(C)c3c(=O)[nH]2)cc1	active: 39.8 µM	–
Cc1cc(C)c[n+](-c2[nH]c(=O)sc2/C=N/N=C(\[O-])c2cccnc2)c1	inconclusive: 79.4 µM [inhibitor, single point]	–
Cc1ccc(NC(=O)COC(=O)Cn2ccc(C(F)(F)F)n2)cc1Cl	inconclusive: 39.8 µM [inhibitor, single point]	–
COc1cccc(N2C(=O)N(Cc3ccc(C#N)cc3)c3ccccc3S2(=O)=O)c1	–	inactive: 1.74%
Cc1cc(C(=O)COC(=O)c2ccc(Cl)c(S(N)(=O)=O)c2)c(C)n1C1CC1	active: 50.1 µM	–
COc1ccc(NC(=O)CCc2nnc3n(C)c(=O)c4sccc4n23)cc1Cl	–	inactive: -23.9%
CCN(C(=O)CSc1nncn1-c1ccccc1)c1c(N)n(Cc2ccccc2)c(=O)[nH]c1=O	inconclusive: 39.8 µM [inhibitor, single point]	–

Compound	Potency	activity, negative = inhibition
CN(C)/C=N/C(=S)Nc1ccc(Cl)cc1Cl	–	inactive: -20.9%
COC(=O)[C@@]1(Cc2ccccc2)[C@H]2c3cc(C(=O)N4CCCC4)n(Cc4ccsc4Br)c3C[C@H]2CN1C(=O)c1ccccc1	inconclusive: 50.1 µM [inhibitor, partial curve, poor fit]	–
COc1ccccc1CNC(=O)COc1cccc(-n2cnnn2)c1	–	inactive: -1.87% [at 102 µM]
Cc1cc(NS(=O)(=O)c2ccc(NC(=O)NC(C)(C(F)(F)F)C(F)(F)F)cc2)no1	–	inactive: -28.6%
CCCCCCSc1nc(O)c(C2OC(=O)c3c2ccc(OC)c3OC)c(=O)n1-c1ccccc1 (stereo unspecified)	inconclusive: 79.4 µM [inhibitor, single point]	–
COc1ccc(C2=NN(C(=O)c3cccs3)C(O)(C(F)(F)F)C2)cc1 (stereo unspecified)	–	inactive: -27.1% [at 102 µM]
Cc1ccc(NC(=O)CN(C)C(=O)COC(=O)CCS(=O)(=O)c2ccc(C)cc2)cc1	–	inactive: 12.1% [at 102 µM]
O=C(NC1CCCCC1)N1CCC(n2cnc3ccccc32)CC1	active: 56.2 µM	–
CC(=O)NC(CC(=O)OCC(=O)N1CCc2ccccc21)c1ccccc1 (stereo unspecified)	inconclusive: 89.1 µM [inhibitor, single point]	–
CCOc1ccc2[nH]c(=O)c(C(c3nnnn3C3CCCCC3)N3CCN(C)CC3)cc2c1 (stereo unspecified)	inconclusive: 8.91 µM [inhibitor, single point]	–
COC(C)(C)[C@@H](O)COc1c2ccoc2cc2oc(=O)ccc12	–	inactive: 10.8% [at 2.33 µM]
Cc1cc2ccccn2c1C(=O)c1ccc(S(=O)(=O)N(C)C)cc1	inconclusive: 39.8 µM [inhibitor, partial curve]	–
O=C(NCc1ccccc1)C1=C[C@H](c2ccc(C(F)(F)F)cc2)C[C@H](OCc2ccc(CO)cc2)O1	–	inconclusive: -98.1% [inhibitor]
O=C1CC(C(=O)Nc2cccc(Cl)c2)n2ncnc2N1 (stereo unspecified)	–	inactive: -3.25% [at 102 µM]
N#Cc1ccc(N=c2ssnc2Cl)cc1	inconclusive: 1.41 µM [inhibitor, full curve, poor fit]	inconclusive: -93.7% [inhibitor] [at 2.33 µM]
Cc1ccc(S(=O)(=O)N2CCN(C(=O)CSc3nc4ccccc4o3)C2)cc1	–	inactive: -1.52% [at 2.33 µM]
Cc1ccc(C(=O)N/C(=C\c2ccco2)C(=O)NC2CCS(=O)(=O)C2)cc1 (stereo unspecified)	inconclusive: 50.1 µM [inhibitor, partial curve, poor fit]	–
CCCc1nnc(NC(=O)Cn2c(=O)oc3ccccc32)s1	–	inconclusive: -76.9% [inhibitor] [at 12.7 µM]
Fc1ccc(-n2c(-c3ccco3)n[nH]c2=S)cc1	inconclusive: 12.6 µM [inhibitor, partial curve, poor fit]	–
CCCCNC(=S)Nc1cccc2cnccc12	active: 44.7 µM	–
CCCn1nnc(NC(=O)c2ccc(-c3cc(Cl)ccc3Cl)o2)n1	inconclusive: 63.1 µM [inhibitor, partial curve, poor fit]	–
CC(CN1CCN(C)CC1)OC(=O)c1ccccc1 (stereo unspecified)	inconclusive: 89.1 µM [inhibitor, single point]	–
